# Source: the supplement of paper PMC8728848
# Some of the results follow.
# Columns and labels:
# Assay in all cases: glycan array binding signal (z-score within array); higher = stronger binding
# Conditions in all cases: glycan notation: IUPAC condensed, linker removed
# [1] = target: Neu5Ac(a2-3)GalNAc(b1-4)GlcNAc
# Procedure, shortened: (§1)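 Glycan array binding is given as a within-array Z-score, which can be read as non-binding when negative. The arrays, 3228 of them, came from the Consortium for Functional Glycomics database and were retained only where the protein sequence was available. Z-scores were averaged across arrays of the same protein sequence at different concentrations or buffers and across linkers.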
# [2] = target: Neu5Ac(a2-3)[GalNAc(b1-4)]Gal(b1-4)Glc
# Procedure, shortened: as §1
# [3] = target: Neu5Ac(a2-3)[GalNAc(b1-4)]Gal(b1-4)GlcNAc
# Procedure, shortened: as §1
# [4] = target: Neu5Ac(a2-3)[Neu5Ac(a2-6)]GalNAc
# Procedure, shortened: as §1
# [5] = target: Neu5Ac(a2-6)Gal(b1-4)GlcNAc
# Procedure, shortened: as §1
# [6] = target: Neu5Ac(a2-6)Gal(b1-4)GlcNAc(b1-2)Man(a1-3)[Neu5Ac(a2-6)Gal(b1-4)GlcNAc(b1-2)Man(a1-6)]Man(b1-4)GlcNAc(b1-4)GlcNAc
# Procedure, shortened: as §1
# [7] = target: Neu5Ac(a2-6)Gal(b1-4)GlcNAc(b1-3)Gal(b1-4)GlcNAc
# Procedure, shortened: as §1
# [8] = target: Neu5Ac(a2-6)Gal(b1-4)GlcNAc(b1-3)Gal(b1-4)[Fuc(a1-3)]GlcNAc(b1-3)Gal(b1-4)[Fuc(a1-3)]GlcNAc
# Procedure, shortened: as §1
# [9] = target: Neu5Ac(a2-6)Gal(b1-4)GlcNAc6S
# Procedure, shortened: as §1
# Neu5Ac(a2-6)GalNAc = target: Neu5Ac(a2-6)GalNAc
# Procedure, shortened: as §1
# [10] = target: Neu5Ac(a2-6)GalNAc(b1-4)GlcNAc
# Procedure, shortened: as §1
# Neu5Ac(a2-8)Neu5Ac = target: Neu5Ac(a2-8)Neu5Ac
# Procedure, shortened: as §1
# [11] = target: Neu5Ac(a2-8)Neu5Ac(a2-3)Gal(b1-4)Glc
# Procedure, shortened: as §1
# [12] = target: Neu5Ac(a2-8)Neu5Ac(a2-3)[GalNAc(b1-4)]Gal(b1-4)Glc
# Procedure, shortened: as §1
# [13] = target: Neu5Ac(a2-8)Neu5Ac(a2-8)Neu5Ac
# Procedure, shortened: as §1
# [14] = target: Neu5Ac(a2-8)Neu5Ac(a2-8)Neu5Ac(a2-3)Gal(b1-4)Glc
# Procedure, shortened: as §1
# [15] = target: Neu5Ac(a2-8)Neu5Ac(a2-8)Neu5Ac(a2-3)[GalNAc(b1-4)]Gal(b1-4)Glc
# Procedure, shortened: as §1
# [16] = target: Neu5Ac(a2-8)Neu5Ac(a2-8)Neu5Ac(a2-8)Neu5Ac(a2-3)[GalNAc(b1-4)]Gal(b1-4)Glc
# Procedure, shortened: as §1
# [17] = target: Neu5Ac9Ac(a2-6)Gal(b1-4)GlcNAc
# Procedure, shortened: as §1
# [18] = target: Neu5Gc(a2-3)Gal(b1-3)GlcNAc
# Procedure, shortened: as §1
# [19] = target: Neu5Gc(a2-3)Gal(b1-3)[Fuc(a1-4)]GlcNAc
# Procedure, shortened: as §1
# Neu5Gc(a2-3)Gal(b1-4)Glc = target: Neu5Gc(a2-3)Gal(b1-4)Glc
# Procedure, shortened: as §1
# [20] = target: Neu5Gc(a2-3)Gal(b1-4)GlcNAc
# Procedure, shortened: as §1
# [21] = target: Neu5Gc(a2-3)Gal(b1-4)[Fuc(a1-4)]GlcNAc
# Procedure, shortened: as §1
# [22] = target: Neu5Gc(a2-6)Gal(b1-4)GlcNAc
# Procedure, shortened: as §1
# Neu5Gc(a2-6)GalNAc = target: Neu5Gc(a2-6)GalNAc
# Procedure, shortened: as §1
binder,measurement,setting,value
STA (Solanum tuberosum) (protein) NASAPLPYPQCGLKKGGGKCIKTGECCSIWGWCGTTSDYCAPGYCQKQCPGPYPQGRCGWQANGKSCPTGTGQCCSNAGWCGTTSDYCAPNNCQSQCKLPPPPPSPPPPPPSPPPPSPPPPPPSPPPPSPSPPPPPPSPPPPSPPPPSPPPPSPPPPPSPSPPPPPPSPPPPPPPLPYPQCGMKKGGGKCIKTGECCSIWGWCGTTSKYCSPGYCQMQCPDPYPEGRCGWQANGKSCPTGTGQCCSNAGWCGTTSAYCAPVNCQAQCNTTTLTSPIKNRMRGIESFMLNVV,glycan array binding signal (z-score),[1],1.35
same,glycan array binding signal (z-score),[2],-0.51
same,glycan array binding signal (z-score),[3],0.037
same,glycan array binding signal (z-score),[4],-0.506
same,glycan array binding signal (z-score),[5],-0.502
same,glycan array binding signal (z-score),[6],-0.5
same,glycan array binding signal (z-score),[7],0.912
same,glycan array binding signal (z-score),[8],-0.514
same,glycan array binding signal (z-score),[9],-0.498
same,glycan array binding signal (z-score),Neu5Ac(a2-6)GalNAc,-0.494
same,glycan array binding signal (z-score),[10],2.46
same,glycan array binding signal (z-score),Neu5Ac(a2-8)Neu5Ac,-0.505
same,glycan array binding signal (z-score),[11],-0.496
same,glycan array binding signal (z-score),[12],-0.506
same,glycan array binding signal (z-score),[13],-0.508
same,glycan array binding signal (z-score),[14],-0.5
same,glycan array binding signal (z-score),[15],-0.512
same,glycan array binding signal (z-score),[16],-0.501
same,glycan array binding signal (z-score),[17],-0.498
same,glycan array binding signal (z-score),[18],-0.508
same,glycan array binding signal (z-score),[19],-0.511
same,glycan array binding signal (z-score),Neu5Gc(a2-3)Gal(b1-4)Glc,-0.507
same,glycan array binding signal (z-score),[20],1.47
same,glycan array binding signal (z-score),[21],-0.501
same,glycan array binding signal (z-score),[22],-0.508
same,glycan array binding signal (z-score),Neu5Gc(a2-6)GalNAc,-0.514
